For one substance, binding results are on record in publication PMC11408250.

Amino acid sequences for entries named in this document (tags omitted).
UniProt P35222: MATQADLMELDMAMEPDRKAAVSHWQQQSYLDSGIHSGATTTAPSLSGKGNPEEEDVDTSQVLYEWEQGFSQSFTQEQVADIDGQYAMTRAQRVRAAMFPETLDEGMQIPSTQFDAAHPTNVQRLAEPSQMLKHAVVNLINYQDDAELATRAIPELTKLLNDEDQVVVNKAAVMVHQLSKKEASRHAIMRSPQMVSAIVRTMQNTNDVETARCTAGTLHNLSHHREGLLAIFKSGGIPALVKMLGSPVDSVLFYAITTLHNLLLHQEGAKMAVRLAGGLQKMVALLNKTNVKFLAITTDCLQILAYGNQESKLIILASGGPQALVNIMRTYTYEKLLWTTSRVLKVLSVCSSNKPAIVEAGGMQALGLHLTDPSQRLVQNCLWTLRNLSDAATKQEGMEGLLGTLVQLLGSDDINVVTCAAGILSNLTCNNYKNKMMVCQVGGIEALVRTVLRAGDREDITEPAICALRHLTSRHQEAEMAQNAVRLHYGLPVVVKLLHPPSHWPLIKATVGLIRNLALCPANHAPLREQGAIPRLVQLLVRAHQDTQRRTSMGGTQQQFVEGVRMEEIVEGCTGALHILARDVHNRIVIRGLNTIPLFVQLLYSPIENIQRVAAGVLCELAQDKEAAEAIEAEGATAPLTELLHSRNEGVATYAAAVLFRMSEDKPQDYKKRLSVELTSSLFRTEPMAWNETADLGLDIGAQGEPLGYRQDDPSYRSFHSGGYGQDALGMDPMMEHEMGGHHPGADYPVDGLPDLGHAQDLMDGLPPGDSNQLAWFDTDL

These are yes or no findings as the source states them, for the method shown. Binding seen in cells or lysates may run through a third protein. Some binding calls cover weakened binding; strength is not graded here. Where a sequence is shown, tags or fusion partners need not be part of it.

In test [1] the target is T1, PCDH19 cytoplasmic domain (CD) fragment, epitope-tagged (human) (UniProt Q8TAB3).
T1 sequence: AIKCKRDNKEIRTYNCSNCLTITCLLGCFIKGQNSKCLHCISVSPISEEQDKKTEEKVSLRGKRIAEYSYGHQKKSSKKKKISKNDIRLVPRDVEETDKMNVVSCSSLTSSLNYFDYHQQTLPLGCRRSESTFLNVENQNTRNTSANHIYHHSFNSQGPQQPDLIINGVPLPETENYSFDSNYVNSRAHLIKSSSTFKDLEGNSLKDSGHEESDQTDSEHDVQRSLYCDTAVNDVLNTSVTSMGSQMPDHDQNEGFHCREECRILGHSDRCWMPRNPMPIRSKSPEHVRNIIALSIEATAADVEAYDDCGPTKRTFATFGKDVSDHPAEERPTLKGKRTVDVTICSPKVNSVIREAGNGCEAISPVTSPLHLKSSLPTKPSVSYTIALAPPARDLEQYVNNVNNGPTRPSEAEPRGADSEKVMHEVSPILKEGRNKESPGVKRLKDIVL
Put plainly: co-IP; HEK293T transfected with Myc-PCDH19-FLAG (isoforms, variants or fragments) and β-catenin-V5, with or without CDH2-HA; anti-FLAG agarose beads 1 hour at 4 °C; Wash Buffer; western blot with anti-Myc, anti-HA and anti-V5.

Test [2] addresses T2, PCDH12 (pCMV-PCDH12-Myc/HA) (UniProt Q9NPG4).
T2 sequence: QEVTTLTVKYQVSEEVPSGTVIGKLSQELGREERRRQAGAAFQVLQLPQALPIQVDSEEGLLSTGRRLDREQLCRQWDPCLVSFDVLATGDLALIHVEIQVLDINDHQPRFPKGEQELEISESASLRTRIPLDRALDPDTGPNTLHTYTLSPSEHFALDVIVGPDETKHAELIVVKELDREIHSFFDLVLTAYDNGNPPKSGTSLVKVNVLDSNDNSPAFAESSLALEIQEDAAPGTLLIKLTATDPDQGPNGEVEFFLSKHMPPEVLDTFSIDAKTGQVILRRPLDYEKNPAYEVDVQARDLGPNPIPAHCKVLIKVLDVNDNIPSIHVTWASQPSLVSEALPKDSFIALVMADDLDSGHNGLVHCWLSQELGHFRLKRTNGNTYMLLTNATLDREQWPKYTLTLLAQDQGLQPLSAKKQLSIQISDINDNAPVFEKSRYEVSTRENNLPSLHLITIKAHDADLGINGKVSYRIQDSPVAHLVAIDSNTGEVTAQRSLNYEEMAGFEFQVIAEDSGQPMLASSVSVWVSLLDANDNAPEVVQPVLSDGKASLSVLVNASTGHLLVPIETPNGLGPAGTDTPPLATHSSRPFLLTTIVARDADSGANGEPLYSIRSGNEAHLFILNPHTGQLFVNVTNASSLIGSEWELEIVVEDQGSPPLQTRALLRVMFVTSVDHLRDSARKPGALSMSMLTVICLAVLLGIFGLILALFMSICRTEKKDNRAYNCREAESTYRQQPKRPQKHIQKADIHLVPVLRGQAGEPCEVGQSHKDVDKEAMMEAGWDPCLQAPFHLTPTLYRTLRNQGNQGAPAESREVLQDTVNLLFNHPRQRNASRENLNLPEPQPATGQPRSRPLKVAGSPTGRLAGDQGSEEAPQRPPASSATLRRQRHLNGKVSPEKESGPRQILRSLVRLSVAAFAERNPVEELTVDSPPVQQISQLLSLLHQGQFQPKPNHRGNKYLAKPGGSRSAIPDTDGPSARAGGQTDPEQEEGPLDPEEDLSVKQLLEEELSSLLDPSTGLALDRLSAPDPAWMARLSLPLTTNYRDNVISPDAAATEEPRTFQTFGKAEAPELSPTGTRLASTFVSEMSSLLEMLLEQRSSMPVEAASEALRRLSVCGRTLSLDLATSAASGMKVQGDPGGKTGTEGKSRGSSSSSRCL
Put plainly: co-IP; HEK293T transfected with epitope tagged CAPZA1, αN-catenin or β-catenin and PCDH10 or PCDH12; IP buffer; anti-c-Myc, anti-HA or anti-FLAG beads overnight at 4 °C; western blot. A general note: Immunoblotting shows a protein as a band on a membrane.

Test [3] has as its target T3, PCDH10 (pCMV-PCDH10-Myc/HA) (UniProt Q9P2E7).
T3 sequence: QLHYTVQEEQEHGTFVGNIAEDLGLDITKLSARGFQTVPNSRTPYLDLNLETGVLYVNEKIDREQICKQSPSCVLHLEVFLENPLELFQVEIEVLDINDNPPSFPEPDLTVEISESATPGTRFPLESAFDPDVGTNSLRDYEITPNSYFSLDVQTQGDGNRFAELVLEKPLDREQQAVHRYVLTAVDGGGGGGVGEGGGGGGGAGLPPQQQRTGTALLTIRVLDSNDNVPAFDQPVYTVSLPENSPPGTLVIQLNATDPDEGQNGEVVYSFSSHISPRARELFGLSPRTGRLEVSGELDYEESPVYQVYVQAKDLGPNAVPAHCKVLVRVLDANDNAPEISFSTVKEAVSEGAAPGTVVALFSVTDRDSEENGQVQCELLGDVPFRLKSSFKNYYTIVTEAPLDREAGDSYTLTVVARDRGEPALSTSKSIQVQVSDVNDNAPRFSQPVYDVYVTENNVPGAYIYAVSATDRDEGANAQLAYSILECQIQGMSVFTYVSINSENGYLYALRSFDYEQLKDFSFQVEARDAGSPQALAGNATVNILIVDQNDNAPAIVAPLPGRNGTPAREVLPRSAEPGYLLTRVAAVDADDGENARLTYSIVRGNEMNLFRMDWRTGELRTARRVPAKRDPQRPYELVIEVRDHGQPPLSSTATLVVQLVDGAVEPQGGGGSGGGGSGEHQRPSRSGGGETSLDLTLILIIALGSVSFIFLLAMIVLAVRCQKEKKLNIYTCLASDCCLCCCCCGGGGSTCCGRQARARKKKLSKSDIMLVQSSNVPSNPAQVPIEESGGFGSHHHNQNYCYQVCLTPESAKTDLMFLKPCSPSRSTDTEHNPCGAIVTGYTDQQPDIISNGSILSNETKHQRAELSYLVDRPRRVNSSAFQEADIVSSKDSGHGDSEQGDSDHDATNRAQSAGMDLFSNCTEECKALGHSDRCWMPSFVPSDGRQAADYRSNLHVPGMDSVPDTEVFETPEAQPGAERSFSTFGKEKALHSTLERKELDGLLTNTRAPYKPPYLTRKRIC
Described as above.

As to “β-catenin-V5 (from UniProt P35222 1-781)”, the values for the binding result in test [1], in test [2] and in test [3] were “binds”, “no binding” and “binds”, respectively.
